Where “and” joins values, the source holds several entries; their conditions need not be identical. Equal values may be shown once. Out of some 16,000 compounds screened, about 40 (0.2%) were called active. Not shown: some 1% with an inconclusive outcome. The call rests on the fitted dose curve; in most records, active means well fitted activation curve with a large enough effect; inconclusive means small, poorly fitted or top-dose-only effect, or another doubt; inactive means no such curve, though single readings can be large or run the other way. The list shows a part of the results. More than one record can exist for a structure, and the calls need not agree.
target: Rap guanine nucleotide exchange factor 4 (Homo sapiens) (UniProt Q8WZA2); experiment: Validation qHTS for agonist of cAMP-regulated guanine nucleotide exchange factor 4 (EPAC2); details: EPAC2 Rap1B BODIPY-GDP exchange, fluorescence; activation: active compounds read high;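 on activation: exchange makes BODIPY-GDP fluorescence drop when released from Rap1B; series mostly up to about 150 µM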
Sequence of UniProt Q8WZA2 (Q8WZA2 whole entry, looked up): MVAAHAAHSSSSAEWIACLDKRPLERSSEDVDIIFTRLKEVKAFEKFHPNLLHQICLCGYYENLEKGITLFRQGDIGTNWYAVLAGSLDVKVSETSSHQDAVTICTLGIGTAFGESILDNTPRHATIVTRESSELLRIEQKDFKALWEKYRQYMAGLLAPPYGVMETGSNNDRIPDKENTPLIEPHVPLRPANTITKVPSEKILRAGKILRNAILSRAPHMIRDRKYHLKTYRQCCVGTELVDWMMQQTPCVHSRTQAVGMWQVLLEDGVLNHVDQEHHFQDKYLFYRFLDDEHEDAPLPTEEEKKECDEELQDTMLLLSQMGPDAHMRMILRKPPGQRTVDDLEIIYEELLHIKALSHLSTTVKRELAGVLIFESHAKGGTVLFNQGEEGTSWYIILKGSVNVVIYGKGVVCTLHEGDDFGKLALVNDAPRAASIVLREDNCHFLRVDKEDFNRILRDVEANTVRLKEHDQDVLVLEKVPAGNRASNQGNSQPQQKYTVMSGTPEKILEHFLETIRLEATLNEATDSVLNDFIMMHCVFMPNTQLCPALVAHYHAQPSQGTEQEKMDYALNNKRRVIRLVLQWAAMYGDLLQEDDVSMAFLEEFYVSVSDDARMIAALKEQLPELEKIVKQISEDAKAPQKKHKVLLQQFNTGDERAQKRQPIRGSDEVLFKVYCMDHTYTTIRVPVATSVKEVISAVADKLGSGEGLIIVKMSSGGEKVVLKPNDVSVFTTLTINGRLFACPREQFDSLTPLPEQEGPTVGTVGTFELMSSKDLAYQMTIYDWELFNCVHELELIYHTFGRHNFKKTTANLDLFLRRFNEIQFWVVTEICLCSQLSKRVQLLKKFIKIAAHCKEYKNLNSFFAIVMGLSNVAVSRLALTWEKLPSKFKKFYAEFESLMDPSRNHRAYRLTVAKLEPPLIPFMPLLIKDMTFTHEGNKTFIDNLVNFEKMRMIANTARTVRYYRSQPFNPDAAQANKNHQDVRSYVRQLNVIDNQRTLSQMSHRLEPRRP
In short: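 Fluorescent exchange assay: 100 nM EPAC2 with 250 nM RAP1B-BODIPY-GDP and 50 uM GDP; compound added, 5 min at room temperature, then read (ex 480/em 540 nm) every 5 min for 30 min. Normalized to 6.5 mM cAMP agonist control.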
On the % scale 0 is the no-effect control and ±100 the full control effect; potency means the concentration at half of the fitted maximal effect.

Row | Compound | activation | Potency
1 | CCC(=O)O[C@@H]1CC(=O)O[C@H](C)C/C=C/C=C/[C@H](O)[C@H](C)C[C@H](CC=O)[C@H](O[C@@H]2O[C@H](C)[C@@H](O[C@H]3C[C@@](C)(O)[C@@H](OC(=O)CC)[C@H](C)O3)[C@H](N(C)C)[C@H]2O)[C@H]1OC | inactive: -15.9% | –
2 | COC(=O)c1cn([C@H]2C[C@@H](C(=O)N3CCCCCC3)N(Cc3ccsc3)C2)nn1 | inactive: 4.52% | –
3 | COc1c(C)c2c(c(O)c1CC=C(C)CCC(=O)OCCN1CCOCC1)C(=O)OC2 | inactive: 1.47% | –
4 | COc1ccc(S(=O)(=O)N2c3ccc(Cl)cc3[C@@](O)(c3ccccc3Cl)[C@H]2C(=O)N2CCC[C@@H]2C(N)=O)cc1OC | inactive: -0.623% | –
5 | CCc1noc(C)c1C(=O)NCCN1Cc2cc(OC)ccc2OC(CC)C1 (stereo not drawn) | inactive: -13.7% | –
6 | O=C(O)[C@@H]1C[C@H](C(=O)O)N1 | inactive: -26.5% | –
7 | N#Cc1ccccc1-c1cncnc1NCc1cccnc1 | inactive: -12.6% | –
8 | CC(=O)OCC(=O)[C@@]12OC(C)(C)O[C@@H]1C[C@H]1[C@@H]3C[C@H](F)C4=CC(=O)C=C[C@]4(C)[C@@]3(F)[C@@H](O)C[C@@]12C | inactive: 6.84% | –
9 | Cc1cc(C)c(CN2CCC3(CCC(CNC(=O)c4ccn(C)n4)O3)CC2)cc1C (stereo not drawn) | inactive: -3.92% | –
10 | O=S(=O)(c1ccccc1)N1CCC2(CCN(C(c3ccccc3)c3ccccc3)CC2)CC1 | inactive: -6.85% | –
11 | C[C@]12CCC3c4ccc(O)cc4CCC3C1CC(O)C2O (stereo partly drawn) | inactive: -9.02% | –
12 | O=C(c1ccc(C(F)(F)F)cc1)N(Cc1cc2ccc(F)cc2nc1N1CCOCC1)C1CC1 | inactive: -4.92% | –
13 | O=C1CC2(CCCC2)CC(=O)N1CCCCNC[C@H]1COc2ccccc2O1 | inactive: -22.5% | –
14 | O=c1oc2c(O)c(O)cc3c(=O)oc4c(O)c(O)cc1c4c23 | inactive: 0.203% | active: 126 µM
15 | c1ccc(-c2ccc(N3CCCC4(CCNCC4)C3)cc2)cc1 | inactive: -11% | –
16 | COC(=O)c1ccccc1NS(C)(=O)=O | inactive: -20.1% | –
17 | Cc1noc(C)c1C(=O)N1CCC2(CC1)CN(c1cccc(-c3ccccc3)c1)C2 | inactive: 3.59% | –
18 | COc1ccc(Oc2ncc3nc(-c4cc(F)cc(F)c4)c(=O)n(C)c3n2)cc1 | inactive: -14.8% | –
19 | COc1ccc(-c2coc3cc(OC(C)=O)cc(OC(C)=O)c3c2=O)cc1 | inactive: -0.494% | –
20 | NC(=O)NCCC[C@H](N)C(=O)O | inactive: 6.95% | –
21 | CC(C)C[C@H]1C(=O)N2CCC[C@@H]2[C@]2(O)O[C@](NC(=O)[C@@H]3C=C4c5cccc6[nH]c(Br)c(c56)C[C@H]4N(C)C3)(C(C)C)C(=O)N12 | inactive: -8.02% | –
22 | c1coc(CNc2ncnc3nc[nH]c23)c1 | inactive: -0.955% and inactive: -23.9% | –
23 | COc1ccc2[nH]cc(CCNc3ncncc3-c3cccc(C#N)c3)c2c1 | inactive: 3.1% | –
24 | S=C(S)N1CCCC1 | inactive: -3.64% and inactive: -26.9% | –
25 | O=C1NS(=O)(=O)c2ccccc21 | inactive: -7.29% and inactive: 0.068% | –
26 | O=S(=O)(O)c1cc(O)c2c(N=Nc3ccc(Nc4ccccc4)c4c(S(=O)(=O)O)cccc34)cc(S(=O)(=O)O)cc2c1 | inactive: -23.8% | –

Row | Compound | activation | Potency
27 | NS(=O)(=O)c1cc2c(cc1Cl)NC(C1CC3C=CC1C3)NS2(=O)=O (stereo not drawn) | inactive: -11% and inactive: -4.46% | –
28 | c1ccc2c(N3CCNCC3)nc(-c3ccc4c(c3)OCO4)nc2c1 | inactive: -9.61% | –
29 | CC(=O)CC(c1ccccc1)c1c(O)c2ccccc2oc1=O (stereo not drawn) | inactive: -19% and inactive: -17.2% | –
30 | C(=C\c1ccc2ccccc2n1)/c1ccc2ccccc2n1 | inactive: -21.2% | –
31 | CC(C)(C)c1ccc(C(=O)N2CCC3(CC2)CC3C(=O)NCCc2ccccn2)cc1 (stereo not drawn) | inactive: 7.29% | –
32 | CCNc1ncc2nc(-c3ccc(OC)cc3)c(=O)n(CCc3ccccc3)c2n1 | inactive: 6.79% | –
33 | O=C1CC(c2ccc(O)cc2)Oc2cc(O)cc(O)c21 (stereo not drawn) | inactive: -7.51% and inactive: 4.08% | –
34 | CN1CCN(c2ncc3nc(CCc4ccccc4)c(=O)n(CCC#N)c3n2)CC1 | inactive: -19.4% | –
35 | O=C(c1cnccn1)N1CCC2(CCCN(C(c3ccccc3)c3ccccc3)C2)CC1 | inactive: -40.9% | –
36 | CN(C)C(=O)c1ccc(-c2ccc3ncnc(Nc4ccc(F)cc4)c3c2)cc1 | inactive: -5.7% | –
37 | O=C(Nc1cccc(C(=O)Nc2ccc(S(=O)(=O)O)c3cc(S(=O)(=O)O)cc(S(=O)(=O)O)c23)c1)Nc1cccc(C(=O)Nc2ccc(S(=O)(=O)O)c3cc(S(=O)(=O)O)cc(S(=O)(=O)O)c23)c1 | inactive: -4.7% and inactive: 6.43% and inactive: -8.86% | –
38 | O=C(CN1C(=O)c2ccccc2C1=O)NCC1Cc2cccc(-c3ncccn3)c2O1 (stereo not drawn) | inactive: -11.7% | –
39 | CC(=O)OC1CC[C@]2(C)C(CC[C@@]3(C)C2C(=O)C=C2C4C(C)C(C)CC[C@@]4(C(=O)O)CCC23C)C1(C)C (stereo partly drawn) | inactive: -53.9% | –
40 | C[C@]12C=CC(=O)C=C1CCC1C2C(=O)C[C@]2(C)C1CC[C@]2(O)C(=O)CO (stereo partly drawn) | inactive: 2.09% | –
41 | Cc1ccnc2c(Cl)cccc12 | inactive: -24.9% | –
42 | Cn1nccc1C(=O)NCC1CCC2(CCN(Cc3c(O)ccc4ccccc34)CC2)O1 (stereo not drawn) | inactive: -3.38% | –
43 | COc1ccc2c(c1)OC(C)CN(CCNC(=O)c1cc3cc(F)ccc3[nH]1)C2 (stereo not drawn) | inactive: -6.86% | –
44 | COc1cccc2c1C(=O)c1c(O)c3c(c(O)c1C2=O)C[C@@](O)(C(C)=O)C[C@@H]3O[C@H]1C[C@H](N)[C@H](O)[C@H](C)O1 | – | active: 100 µM
45 | CCN1CCN(C(=O)N[C@@H](C(=O)N[C@@H]2C(=O)N3[C@@H]2SC(C)(C)[C@H]3C(=O)O)c2ccccc2)C(=O)C1=O | inactive: -20.1% | –
46 | CNC(=O)c1cc(Oc2ccc(NC(=O)Nc3ccc(Cl)c(C(F)(F)F)c3)cc2)ccn1 | inactive: 16.4% | –
47 | COc1ccc(C2CC(=O)c3c(O)cc(O[C@H]4OC(COC5OC(C)C(O)C(O)[C@@H]5O)C(O)C(O)C4O)cc3O2)cc1O (stereo partly drawn) | inactive: -13.3% | –
48 | C[C@@]12CCC(O)C[C@H]1CCc1ccccc12 (stereo partly drawn) | inactive: -5.37% | –
49 | CCNc1ncc2nc(-c3ccccc3)c(=O)n(Cc3cccs3)c2n1 | inactive: -11.1% | –
50 | Cc1ccc2[nH]c3c(c2c1)CN(C(=O)CC1(c2ccccc2)CC(=O)N(Cc2cccnc2)C1=O)CC3 (stereo not drawn) | inactive: 1.97% | –
51 | O=C(O)[C@H]1CN(C/C=C/P(=O)(O)O)CCN1 | inactive: -6.05% | –
52 | CNc1nc(-c2cccc(NS(C)(=O)=O)c2)nc2ccccc12 | inactive: -10.5% | –

Row | Compound | activation | Potency
53 | CC1(C)N=C(N)N=C(N)N1c1ccc(Cl)cc1 | inactive: 3.38% | –
54 | N#Cc1cccc(-c2cncnc2NCc2cccnc2)c1 | inactive: 0.482% | –
55 | C[C@@H](NCCc1ccc(O)cc1)[C@@H](O)c1ccc(O)cc1 | inactive: -3.37% | –
56 | COCC1CCCN(Cc2ccc3c(c2)CN(C(=O)c2ccnn2C)CCO3)C1 (stereo not drawn) | inactive: -4.62% | –
57 | COc1ccc(NS(=O)(=O)c2ccc(I)cc2)cc1N1CCN(C)CC1 | inactive: -15% | –
58 | COc1ccc(-n2c(=O)c(-c3cccs3)nc3cnc(Nc4ccccc4)nc32)cc1 | inactive: -5.89% | –
59 | COc1ccc(C(=O)N2CCC3(CC2)CCN(c2ncccn2)CC3)cc1 | inactive: -17% | –
60 | CN1C(CCl)Nc2cc(Cl)c(S(N)(=O)=O)cc2S1(=O)=O (stereo not drawn) | inactive: 0.471% | –
61 | Brc1ccc2c(ccc[n+]2CCc2ccccc2)c1 | inactive: -22.7% | –
62 | Ic1ccc(N2CCN(Cc3c[nH]c4ncccc34)CC2)cc1 | inactive: 0.731% and inactive: -25.7% | –
63 | CCCN(CC)C(CC)C(=O)Nc1c(C)cccc1C (stereo not drawn) | inactive: -0.674% | –
64 | COc1cc(=O)n2c(c1C(=O)NCc1ccco1)CCN(Cc1cc3ccccc3[nH]1)CC2 | inactive: -4.5% | –
65 | OCc1ccccc1O[C@@H]1O[C@H](CO)[C@@H](O)[C@H](O)[C@H]1O | inactive: 5.72% | –
66 | CNc1nc(-c2ccccc2C(F)(F)F)nc2ccccc12 | inactive: -5.8% | –
67 | Cc1noc(C)c1C(=O)N1CCC[C@@]2(CCN(c3cccc(-c4ccccc4)c3)C2)C1 | inactive: -14.2% | –
68 | CS(=O)(=O)Nc1cccc(-c2cncnc2Nc2ccc(F)cc2)c1 | inactive: -16.6% | –
69 | FC(F)(F)c1ccccc1-c1cncnc1-n1ccnc1 | inactive: 6.36% | –
70 | C=C1CC[C@@H]2[C@](C)(CO)[C@H](O)CC[C@@]2(C)[C@@H]1C/C=C1/C(=O)OC[C@H]1O | inactive: -48.5% | –
71 | Cc1c(C(=O)N(CCO)C(C)C)cnn1-c1ncc2c(n1)-c1ccccc1CCC2 | inactive: -15.9% | –
72 | COc1ccc(-c2nc3cnc(N(C)C)nc3n(-c3ccccc3)c2=O)cc1 | inactive: 1.8% | –
73 | CCN(CC)CCN(C)c1ccc(/C=C/c2ccnc3ccccc23)cc1 | inactive: 0.0384% | –
74 | Cc1cn([C@H]2C=C[C@@H](CO)O2)c(=O)[nH]c1=O | inactive: -6.15% and inactive: 7.4% | –
75 | CS(=O)(=O)N1CCC2(CCCN(c3ccncc3)C2)CC1 | inactive: -7.01% | –
76 | CC(=O)N1CCC2(CCCN(c3ccccc3)C2)CC1 | inactive: -1.64% | –
77 | CC[C@H](C)[C@@H]1NC(=O)[C@H](Cc2ccc(O)cc2)NC(=O)[C@@H](N)CSSC[C@@H](C(=O)N2CCC[C@H]2C(=O)N[C@@H](CC(C)C)C(=O)NCC(N)=O)NC(=O)[C@H](CC(N)=O)NC(=O)[C@H](CCC(N)=O)NC1=O | inactive: -22% | –

From PubChem BioAssay AID1645887 (National Center for Advancing Translational Sciences (NCATS), 2021)
